Data taken from publication PMC6919601, “Identification of Plasmodium dipeptidyl aminopeptidase allosteric inhibitors by high throughput screening” (PLoS ONE, 2019).
Among all 110,000 compounds or so, about 230 (0.21%) showed an effect of 50% or more. The list shows a part of the results.

Target: DPAP1 (Plasmodium falciparum, UniProt Q8IIJ9)
Assay: primary screen, percent inhibition; read by cleavage of a fluorogenic dipeptide substrate; higher = more effect of the substance
Design: species or system P. falciparum D10 trophozoite lysates; single well
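Note: 30 min substrate incubation versus DMSO and 10 µM JCP410 controls.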

DPAP1, sequence (Q8IIJ9 whole entry, looked up): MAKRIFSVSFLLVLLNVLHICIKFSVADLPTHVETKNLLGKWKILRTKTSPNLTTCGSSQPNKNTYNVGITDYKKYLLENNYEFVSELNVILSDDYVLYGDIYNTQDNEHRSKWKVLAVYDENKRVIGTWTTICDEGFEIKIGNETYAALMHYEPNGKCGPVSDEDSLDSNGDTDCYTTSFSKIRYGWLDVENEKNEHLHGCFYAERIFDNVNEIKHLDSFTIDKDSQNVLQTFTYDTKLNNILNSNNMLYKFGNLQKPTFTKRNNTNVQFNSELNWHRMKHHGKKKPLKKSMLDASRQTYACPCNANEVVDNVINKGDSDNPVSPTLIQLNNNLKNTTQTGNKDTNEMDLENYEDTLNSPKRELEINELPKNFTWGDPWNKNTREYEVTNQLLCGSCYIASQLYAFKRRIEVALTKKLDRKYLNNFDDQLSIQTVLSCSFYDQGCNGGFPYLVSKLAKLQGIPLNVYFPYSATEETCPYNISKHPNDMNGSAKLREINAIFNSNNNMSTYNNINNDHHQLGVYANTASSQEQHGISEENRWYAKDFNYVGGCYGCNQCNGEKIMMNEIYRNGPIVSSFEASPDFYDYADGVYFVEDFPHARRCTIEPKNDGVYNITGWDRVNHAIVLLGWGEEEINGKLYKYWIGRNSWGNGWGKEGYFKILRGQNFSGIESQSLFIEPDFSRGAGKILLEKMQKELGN

Going from `Cc1c(C2C(C#N)=C(N)OC3=C2C(=O)CCC3)cnn1C` (stereo not drawn) to `COc1ccc(C2CC(=O)N3CN(CCCc4ccccc4)CSC3=C2C#N)cc1OC` (stereo not drawn), the “% Inhibition @ 10 uM” value rises from -0.105% to 30.5%.

`O=C(Nc1ccc(OCc2ccccc2)cc1)C1CCCO1` (stereo not drawn) and `CCOc1ccc(NC(=O)c2ccc(-c3ccccc3)cc2)cc1` are the same in “% Inhibition @ 10 uM” value: -1.6% for the first, -1.6% for the second.

Going from `N#Cc1c(NC(=O)CSc2ncccn2)sc2c1CCC2` to `NC(=O)c1c(NC(=O)c2cccs2)sc2c1CCCCC2`, the “% Inhibition @ 10 uM” value falls from 11.3% to 2.92%.

Going from `CCN(CC)CCSc1nnc(Nc2ccccc2)n1-c1ccccc1` to `CCN(CC)CCCNC(=O)Cn1nc(C)c2c(C)n(-c3ccccc3)nc2c1=O`, the “% Inhibition @ 10 uM” value rises from -2.59% to 3.16%.

First: O=S(=O)(c1cccc(Cl)c1)N1CCN(Cc2ccc3c(c2)OCO3)CC1
Second: CCOc1ccccc1N1CCN(Cc2cccc(C(F)(F)F)c2)CC1
The “% Inhibition @ 10 uM” value of the first is lower: -10.2% for the first, 3.16% for the second.

Compared with `Cc1ccc(Cl)cc1-n1ncc2c(N3CCCC3)ncnc21`, `CCCNC(=O)C1CCCN(c2ncnc3onc(C)c23)C1` (stereo not drawn) is lower in “% Inhibition @ 10 uM” value: 8.79% for the first, 2.01% for the second.

First: CCCCOc1ccc(C(=O)NC(Cc2ccccc2)C(=O)NC(CCSC)C(=O)O)cc1 (stereo not drawn)
Second: COc1ccccc1/C=C(\NC(=O)c1ccc(C)cc1)C(=O)Nc1ccccc1OC
The “% Inhibition @ 10 uM” value of the first is lower: 1.76% for the first, 2.36% for the second.

Going from `Cc1c(C(=O)N2CCCCC2)sc(NC(=O)C(C(F)(F)F)C(F)(F)F)c1C#N` to `CCc1c(O)n(C2CCCCC2)c(SCC(=O)N2CCCCC2)nc1=O`, the “% Inhibition @ 10 uM” value falls from 3.05% to 1.9%.

Going from `O=C1C2C3C=CC(C2C(=O)N1Cc1ccc(F)cc1)C1C(=O)N(Cc2ccc(F)cc2)C(=O)C31` (stereo not drawn) to `CN(C)CCNC(=O)c1ccc2c(c1)sc1nc(-c3ccc(F)cc3)cn12`, the “% Inhibition @ 10 uM” value rises from -3.19% to 3.8%.

Going from `COc1ccc(-c2csc(-n3nc(C)c(C(c4ccccc4)C(C#N)C(N)=O)c3O)n2)cc1` (stereo not drawn) to `COc1ccc(C2=CC(c3ccccc3OC(F)F)n3nnnc3N2)cc1` (stereo not drawn), the “% Inhibition @ 10 uM” value rises from -8.63% to 1.73%.

Compared with `CC1CCN(CCCNC(=O)c2cc3c(Cl)nc4ccccc4c3s2)CC1`, `CCOC(=O)N1CCC(NC(=O)c2cc3cc4ccc(C)cc4nc3o2)CC1` is lower in “% Inhibition @ 10 uM” value: 10.2% for the first, -1.54% for the second.

Going from `O=C(c1ccc(Cl)c(Cl)c1)N1CCOCC1` to `Cc1oc(-c2ccc(C(=O)N3CCOCC3)cc2)nc1COc1ccccc1`, the “% Inhibition @ 10 uM” value falls from 0.177% to -5.18%.

Going from `COc1ccc2ccccc2c1/C=C/C(=O)c1ccncc1` to `COc1ccccc1NC(=S)NC(=O)c1ccc(F)cc1`, the “% Inhibition @ 10 uM” value falls from 4.57% to 1.35%.

`C=Cc1ccc(Cn2c(C)c(CNC3CCCCC3)c(C(=O)O)c2C)cc1` and `Cc1c(CNCCc2ccccc2)c(C(=O)O)c(C)n1Cc1c(F)cccc1Cl` are the same in “% Inhibition @ 10 uM” value: -0.23% for the first, -0.23% for the second.

Going from `OCCCNc1ncnc2sc3c(c12)CCCC3` to `CCOCCCNC(=O)NC(C)c1c(-n2cccc2)sc2c1CCCC2` (stereo not drawn), the “% Inhibition @ 10 uM” value falls from 0.774% to -2.88%.

Going from `CC(=O)c1c(C)oc2ccc(N(C(C)=O)S(=O)(=O)c3c(C)cc(C)cc3C)cc12` to `CC(=O)c1cccc(NC(=O)C2c3ccccc3Oc3ccccc32)c1`, the “% Inhibition @ 10 uM” value falls from 3.04% to -2.53%.

First: COc1ccc(C2C3=C(O)CC(C)(C)CC3=Nc3nc(C(F)(F)F)nn32)cc1OC (stereo not drawn)
Second: COc1ccc(CNC(=O)C(=O)NCCc2ccc(OC)c(OC)c2)cc1
The “% Inhibition @ 10 uM” value of the first is lower: -1.62% for the first, 6.54% for the second.

Compared with `O=C(Cn1c(=O)sc2ccccc21)Nc1cccc(C(F)(F)F)c1`, `O=C(Nc1cccc(Cl)c1)c1ccccc1C(=O)Nc1cccc(Cl)c1` is lower in “% Inhibition @ 10 uM” value: 2.6% for the first, -0.507% for the second.

Compared with `Cc1ccn2c(NC(=O)c3ccccc3)c(-c3ccccc3)nc2c1`, `O=C(O)c1ccccc1C(=O)Nc1ccccc1O` is lower in “% Inhibition @ 10 uM” value: 11.8% for the first, -0.0372% for the second.

First: CC(C)(C)c1ccc(C(=O)O/N=C(\N)Cc2ccc(Cl)cc2)cc1
Second: Cc1occc1C(=O)O/N=C(\N)c1ccccc1
The “% Inhibition @ 10 uM” value of the first is lower: 1.13% for the first, 2.17% for the second.

First: N#CC1(NC(=O)[C@H](Cc2cc(Cl)c(O)c(Cl)c2)NC(=O)c2ccc(-c3ccc(C(F)(F)F)cc3)cc2)CC1
Second: O=C(COc1ccc(Cl)cc1)Nc1cccc(NC(=O)COc2ccc(Cl)cc2)n1
The “% Inhibition @ 10 uM” value of the first is lower: -4.72% for the first, -4.63% for the second.

Compared with `CN(Cc1ccccc1)c1oc(/C=C/c2cccs2)nc1C#N`, `CC(C)CC(=O)Nc1nnc(S(=O)(=O)N(C)Cc2ccccc2)s1` is higher in “% Inhibition @ 10 uM” value: -5.33% for the first, -2.48% for the second.

Going from `CCCCNC(=O)C1CC(=O)N(CCc2ccc(C)cc2)C1` (stereo not drawn) to `CCN1C(=O)CC(C(=O)Nc2ccccc2F)S/C1=N\c1ccc(OC)cc1` (stereo not drawn), the “% Inhibition @ 10 uM” value rises from -3.58% to -1.42%.

Going from `CCOC(=O)c1c(NC(=O)OC)sc2c1CCCC2` to `O=C1CCC(NC(=O)OCc2ccccc2)(C(=O)O)O1` (stereo not drawn), the “% Inhibition @ 10 uM” value rises from 6.89% to 13.3%.

First: NC(=O)c1cc(S(=O)(=O)Nc2ccccc2Cl)ccc1O
Second: O=C1c2ccccc2C(=O)c2cc(S(=O)(=O)N(CCO)CCO)ccc21
The “% Inhibition @ 10 uM” value of the first is lower: -8.33% for the first, -1.18% for the second.

First: Cc1ccccc1/N=C/C1=C(O)CC(c2ccccc2)CC1=O (stereo not drawn)
Second: O=C1c2oc3ccccc3c(=O)c2C(c2ccccc2F)N1c1ccccn1 (stereo not drawn)
The “% Inhibition @ 10 uM” value of the first is lower: -4.12% for the first, 3.25% for the second.

Compared with `CCS(=O)(=O)C1=NN2C(=N)/C(=C\c3ccc(OCc4ccccc4)c(OC)c3)C(=O)N=C2S1`, `CCN1C(=O)/C(=C/c2ccc(C)s2)S/C1=N/c1ccc(OC)cc1` is lower in “% Inhibition @ 10 uM” value: 5.1% for the first, 2.53% for the second.

First: CCOC(=O)N1CCN(c2c(NCCCN3CCN(C4CCCCC4)CC3)c(=O)c2=O)CC1
Second: CNC(=O)CCCc1nnc2n(CCC(C)C)c(=O)c3sccc3n12
The “% Inhibition @ 10 uM” value of the first is higher: -1.44% for the first, -3.88% for the second.

Going from `OC1(CC#CCN2CCCC2)c2ccccc2-c2ccccc21` to `O=C1c2ccccc2C(=O)N1CNc1ccc(Cl)c(Cl)c1`, the “% Inhibition @ 10 uM” value rises from -6.29% to -1.17%.

First: O[C@]12CCCC[C@@H]1[C@@H](c1ccc(Cl)cc1Cl)NCC2
Second: CCCN(CCC)c1ccc(C=C2C(=O)NC(=S)NC2=O)cc1
The “% Inhibition @ 10 uM” value of the first is lower: -0.0372% for the first, 12.1% for the second.

First: CCN(CC)c1ccc(NC(=O)c2ccco2)cc1
Second: CCN(CC)c1ccc(Nc2snc3c2c(=O)n(C)c(=O)n3C)cc1
The “% Inhibition @ 10 uM” value of the first is lower: -4.03% for the first, 1.35% for the second.

For `CCCCCCSc1nnc2nc(C)cc(C)n12`, the “% Inhibition @ 10 uM” value was 2.31%.
